The source gives no read counts; variants with many changes may rest on few reads.
B1: OR4K15 (parent)
chain: GUUAACGGUCAUAGGCCAUGGAAACUAGGAGCACCAUUUCGCUGCCAGUGAAGAAAUGAACAAAGAAAAUCUGGGCCAGGCAGGCAUCAAAAGAAAUAGUCUUGCGCUCAACCAGAAAGUCUGUAAUCAUUUUAAGGGUA

Variants of: B1
Assay: self-cleavage, relative activity (ratio to wild type); higher = more cleavage; in vitro, sequencing; the parent is a self-cleaving ribozyme

Row | Variant | self-cleavage
1 | U2A U124C U132C | 1.32
2 | U2A U57C U97C A118G | 0.46
3 | U2C A24G A33G U100C | 1.22
4 | G1A A117G U120A A135U | 2.64
5 | U2C A11U U38C | 1
6 | U2C A54G A86G | 0.72
7 | U2A U57A A66G A90G U108A A135G | 0
8 | U2A A95G A117G | 1.92
9 | U2C A13U A69C | 0.69
10 | U2C A23G A126G A129G | 0.14
11 | U2C A24G U37C U70A G104A | 0.09
12 | G1A U2G U9C A98C | 1.73
13 | U2A A47G A92G | 1.19
14 | U2C A52G U103C U127A U132C | 0.03
15 | U2C A22G C76U A117G U131C | 0.14
16 | U2C A30G A59U A95G | 0.99
17 | U2C A33U A52G | 1.68
18 | U2A U39A U108C G115U | 0.03
19 | U2A A23G A69G | 1.16
20 | U2A A110G C113A A118G | 0.05
21 | U2C A51G A66G A90G U132C | 1.27
22 | U2C A36U A89U | 1.27
23 | U2C A52G U57C A96G | 0.68
24 | U2C A18U A60U A86G A96G U102C U103A A117G | 0.17

Row | Variant | self-cleavage
25 | U2A U37C A52G | 0.46
26 | U2A U12C A82U A117U U127C A134G | 0.15
27 | U2C A51G U103C | 0.84
28 | U2A A23G A33U G41U A82G | 0.71
29 | U2A A63G A68G U87C U139C | 0.95
30 | U2A C45U A78U A96C U132C | 0.13
31 | U2A A56G U102C A118G | 0.6
32 | U2C A30G A89G A110G | 0.04
33 | U2A A117U U120C | 0.25
34 | U2C A52G U120C | 1.7
35 | U2C A24G U39A | 1.17
36 | U2A A64U A126G A129G A134U | 0.65
37 | U2C A22U G106C | 0.03
38 | U2C A5U A86G | 1.26
39 | U2A A5U U108C | 0.05
40 | U2C A24G A78U A111U | 0.04
41 | U2A A23G A54G U124C | 0.53
42 | U2A A91G U139A | 1.06
43 | U2C A11U A51U U87C U122A | 0.82
44 | U2C A24G U108C A135G | 0.05
45 | U2A G41U U87C | 1.45
46 | U2A A36G A94G | 1.03
47 | G1U U2C U19C A24U A69G A111G | 0.11
48 | U2A A91G U132C | 0.61

Row | Variant | self-cleavage
49 | U2A A22U U43A | 0.57
50 | U2A G41C A67G | 0.56
51 | U2C A22G A47U | 0.55
52 | U2C A11G U19A A51G | 1.04
53 | U2C A24G U39C U122C | 1.07
54 | U2C A51G A62G | 1.05
55 | U2C A33G A111U | 0.08
56 | U2A U19C A33G U130C | 0.61
57 | G1A A22G A56G A59G | 1.31
58 | U2C A11U A18C A33G A62C A95G | 0.96
59 | U2C A24G A36G | 0.79
60 | U2C A51G C61U A69G A111G | 0.13
61 | U2A U39C U43G A116G | 0.8
62 | U2C A22G C45A A66G U127C A140U | 0.18
63 | U2C A27G U37C A78G U120C A129U | 0.15
64 | U2A A33U U38C | 1.01
65 | U2A U9C A54G G80U U132C | 0.23
66 | U2C A22G U39C A94G C105U A135U | 0.09
67 | U2A A86G A89U U108C | 0.04
68 | U2C A24G A36U A62U | 1.79
69 | U2A A22G A67U A86G | 0.3
70 | U2C A24C A54G A86U | 1.5
71 | U2A A22G U38A | 0.52
72 | U2A A22G A69G | 1.24

Row | Variant | self-cleavage
73 | U2A U72C A118U C121U | 0.14
74 | U2A A63G U87C U127C | 1.73
75 | G1A A18G U19G A55U A135G | 0.92
76 | G1A A22G A66G U127C | 0.67
77 | U2A A24G A64G A86C C107G | 0.04
78 | G1A A36G U37C U43C A91G U120C | 0.31
79 | G1U U39C A94G A98G | 0.29
80 | U2C A30U A55G U102C | 1.15
81 | U2C A5U A110U A118G | 0.37
82 | U2A A18U A117G | 1.53
83 | U2C A30C U43C A68G A94G U100C | 0.92
84 | U2C A51G A52G A63U C76G | 0.2
85 | U2A A4G A55G A59U A90G | 0.97
86 | U2C A30G A52G A114C U124C U131C | 0
87 | U2C A23G A47G A60G | 0.55
88 | U2A C16U U87A A110G | 0.1
89 | U2A A52G G84A | 0.6
90 | U2C A24G A30G A52G G73A | 0.18
91 | G1A A62U A125G U127C | 0.58
92 | G1A G106A U122C | 0.01
93 | U2C A47U G104A | 0
94 | U2C A30G U38G A59G A92G A111G A117U | 0.02
95 | G1U A47U A64G | 1.2
96 | U2A A11G A55G A66G U127G | 1.88

Row | Variant | self-cleavage
97 | U2A A59G U102C | 1.11
98 | U2C A24G A92G U108C U127C A135G | 0.02
99 | U2A A24G A27G A54C U120G | 1.3
100 | U2A U38C A82G A95G A117G | 1.93
101 | U2C A13G C35U | 0.86
102 | U2A A89G A96G | 0.28
103 | G1A A56G A62U | 1.62
104 | U2C A22U A56G A62G U87A A125G | 0.24
105 | U2A C6A A55G A60G A67G | 0.73
106 | U2A A60G A89U A98G U130C | 0.29
107 | U2A A33U A54G U103C U131C | 0.38
108 | U2C A52G A94G U108C A110U | 0.01
109 | U2A U49C A82G | 0.58
110 | U2C A4G U43C A55C A116G | 0.92
111 | U2C A24U U122A | 0.23
112 | G1U A52G G53A A64U A89G U108A A110G U132C A135U | 0
113 | U2C A22U A24U A55G | 1.54
114 | U2C A47U A54G G73A U108C | 0.01
115 | U2C A4G A23G A24G A78U | 0.19
116 | G1A A69G U122A | 1.24
117 | G1A A90G A114U | 0.04
118 | U2A U19A U49G | 0.57
119 | U2C A13G A82U A98G U130C U139C | 0.03
120 | U2A A129G U130G | 0.3

Row | Variant | self-cleavage
121 | U2C A22G A52G | 0.9
122 | U2C A18G A63G | 0.53
123 | G1A A24G A95U A125G U130C | 0.24
124 | U2C A23U A27G A55G A116G | 0.98
125 | U2C A30U U102A U132C | 0.4
126 | U2A A24G A95G U97A | 1.26
127 | U2C A22U U43A A98U U102G U103A | 0.41
128 | U2C A11G A54U | 0.81
129 | U2C A11G A23G A36U U120A U132A | 1.42
130 | U2C A18G A59G A90G A96G | 1.36
131 | U2A U43A A47G A95G | 1.29
132 | U2C A33U U100C A111U U132C | 0.21
133 | U2A A59U A78U | 0.61
134 | G1A A36G U57A A86G U124C | 0.52
135 | U2C A13G A78G | 0.23
136 | U2A A54G A69G | 1.17
137 | U2C A11G A54U C105U | 0.35
138 | U2A C46A A59U A116U | 0.41
139 | U2C A33G A47C | 0.26
140 | U2C A30U A111G A117G | 0
141 | U2C A33U G115A A117C U132A | 0.07
142 | U2A A18G U72A A96G | 0.49
143 | G1A U49A A51G A116U A117U A140G | 0.27
144 | U2C A22G A51G U133A | 0.93

Row | Variant | self-cleavage
145 | U2C A23G A68G G115U | 0.24
146 | U2A A23G U72C U127G G136A | 0.67
147 | U2C A24U U26C U57C A135G | 0.36
148 | U2C A30G A36G U37C A60G A117G | 0.92
149 | G1A A66G G73A | 0.58
150 | U2C A24G A54C A92G | 0.93
151 | U2C A52G U70A U127G A129G | 0.43
152 | U2A A51U A89U | 0.93
153 | G1A U2C U38C G75C | 0.26
154 | U2C A51G U102A U108C A125G | 0
155 | U2C A18U C32U A86G A96C U133C | 0.97
156 | U2C A23U A59G | 0.42
157 | U2C A11G A52G | 1.71
158 | U2A A36G U39A A90G U124C | 0.25
159 | U2C A11U A78G | 0.51
160 | U2C A23G A56G A66G | 1.12
161 | U2A A96G A117G | 2.19
162 | U2C A54G A68G U120A U122C | 1.14
163 | U2C A54G A78U U108C | 0
164 | U2C A54G A86G G99U U100C U122C G136A | 0.17
165 | U2C A4G U12C U108C A118G | 0.03
166 | U2A A52G A64G A69G C77U | 1.27
167 | U2A A51G U122C | 0.62

From the RNAGym collection of RNA variant scans (doi:10.7554/elife.90254)
